Assay results from PubChem BioAssay (NCI).
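Five compound concentrations were applied to cells in 96-well plates for 48 hours; endpoints were derived by simple linear interpolation of the resulting dose-response curve. GI50 = concentration required for 50% inhibition of growth. TGI: total growth inhibition.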

Test system: NCI-H322M lung
Assay: growth of human tumour cells (NCI), 48 h

`O=C(NO)c1ccc(Cn2ccc3c(Nc4ccccc4)ncnc32)cc1` showed a GI50 of 5.45 µM and a TGI of over 29 µM.
